These results are taken from the supplement of paper PMC3334620.

Over roughly 33,000 sequences, “E-score (-0.5 to 0.5)” has its median near -0.012; the highest 2% begin near 0.27. This is one part of the list.

This test concerns the target T1, Vhr1 (UniProt P40522).
T1 sequence: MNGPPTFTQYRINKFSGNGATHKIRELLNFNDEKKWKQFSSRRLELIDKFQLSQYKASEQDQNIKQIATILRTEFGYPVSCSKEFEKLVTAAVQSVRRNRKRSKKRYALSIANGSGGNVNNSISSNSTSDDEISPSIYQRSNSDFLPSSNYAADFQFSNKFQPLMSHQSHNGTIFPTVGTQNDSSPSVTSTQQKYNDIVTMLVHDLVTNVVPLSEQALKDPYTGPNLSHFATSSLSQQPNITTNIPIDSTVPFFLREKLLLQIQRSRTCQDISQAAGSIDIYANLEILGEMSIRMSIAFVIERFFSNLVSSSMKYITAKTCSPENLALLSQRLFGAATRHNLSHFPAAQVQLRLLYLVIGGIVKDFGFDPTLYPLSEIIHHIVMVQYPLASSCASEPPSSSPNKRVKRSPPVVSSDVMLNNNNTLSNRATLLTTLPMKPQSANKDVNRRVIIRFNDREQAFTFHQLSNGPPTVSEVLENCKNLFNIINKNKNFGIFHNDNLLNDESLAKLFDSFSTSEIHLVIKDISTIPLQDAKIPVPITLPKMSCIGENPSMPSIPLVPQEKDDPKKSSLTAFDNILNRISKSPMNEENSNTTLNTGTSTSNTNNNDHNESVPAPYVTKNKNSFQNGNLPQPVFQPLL
The test is described as follows: PBM E-score (8-mer binding enrichment) (E-score (-0.5 to 0.5)); higher = stronger / more preferred TF binding; most listed sequences are background and not binding sites. The following applies: protein concentration: 200 nM; construct: GST-full length. In a few lines: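 Bound GST-tagged yeast transcription factors, applied at about 100-200 nM to double-stranded universal all-10-mer Agilent arrays, were detected with fluorescent anti-GST. Scans were normalised with masliner. A modified Wilcoxon-Mann-Whitney statistic, the E-score, was assigned to each ungapped eight-base word pooled with its reverse complement by the Universal PBM Analysis Suite.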
With AGTGGGTG, the “PBM E-score” value amounted to 0.268.
The same measure for AACCCTGG: -0.0314; for AGAGTCAG: 0.399; for ATTGTGTA: 0.184.
Regarding AGCAGGAG, the “PBM E-score” value is -0.0156.
GTGTCGAA: the “PBM E-score” value was 0.128.
On to AACAAAGG, for which the “PBM E-score” value is -0.0471.
The same measure for CCGACTTA: -0.0517; for CCACCACA: -0.137.
The same measure for ATTATGAC: 0.0885.
For CGGGACCC, the “PBM E-score” value is -0.181.
With CTTGAGGA, the “PBM E-score” value was -0.11.
The same measure for CTTTGTTA: -0.158; for CACGCTCG: 0.0681; for AGCGCCCC: -0.141.
The same measure for ACCCGTCA: 0.0105; for AGTGCAAA: 0.00965.
For GTGAGCAC, the “PBM E-score” value is 0.103.
On to CAGGTGCA, for which the “PBM E-score” value came out at 0.162.
Regarding CAACATAA, the “PBM E-score” value was found to be 0.108.
As for CAAATCGG, the “PBM E-score” value is -0.112.
The same measure for AATGGGAC: 0.0215; for CACGATCG: 0.109; for GTCGTCCA: -0.0218.
For ACATATGA, the “PBM E-score” value amounted to 0.0267.
Take CGGACTCC: the “PBM E-score” value is 0.2.
The same measure for AGGGTTAG: 0.0335; for AAGACCGG: -0.166; for CCTCAGGC: 0.0224.
Regarding ACCCTTAC, the “PBM E-score” value was -0.0384.
For CGATAAAA, the “PBM E-score” value was -0.161.
The same measure for AACCTTGC: -0.0252.
The same measure for CTTTCAAC: -0.128; for AAATACAC: -0.011; for CAACTGCA: -0.00961.
Take CAGCTAGG: the “PBM E-score” value is -0.209.
As to CACGTCTG, the “PBM E-score” value came out at 0.103.
In the case of ACGTCACA, the “PBM E-score” value was -0.0538.
For the sequence CGATATAG, the “PBM E-score” value is 0.161.
The same measure for CGGTGAAC: -0.0712; for GGGCGACC: -0.121; for GCGGAACA: 0.00367.
As for GCCGTTTA, the “PBM E-score” value is -0.0373.
The same measure for CCTACGGA: -0.0835.
The same measure for CGTTTGTA: -0.0254; for GAAGTGGC: 0.0181.
Regarding AGGCGCTG, the “PBM E-score” value amounted to 0.00932.
The same measure for ATGTTCAC: -0.00415; for CCGACATC: 0.179.
The same measure for CTCTTCAG: -0.0887; for CATGCTCC: -0.08.
The same measure for AGTGCGGG: -0.0413; for AGAACAGA: -0.103.
As for CTTTTGAC, the “PBM E-score” value is -0.194.
As for TGGAAAAA, the “PBM E-score” value was -0.15.
On to CGACCAAG, for which the “PBM E-score” value is -0.126.
The same measure for AGTACTAG: 0.144; for TATCCGCA: 0.163.
The same measure for GAGAATCA: 0.184.
For the sequence ATTCCAGA, the “PBM E-score” value was -0.0176.
As for CATGGGGA, the “PBM E-score” value was 0.117.
The same measure for GATGTCAA: -0.114.
For TATATATA, the “PBM E-score” value came out at 0.318.
The same measure for ATGCATGG: 0.28; for AGGGAATA: -0.0529.
For ACAAGGAC, the “PBM E-score” value is 0.0747.
The same measure for CGTTATTA: -0.198.
The same measure for CTCGTCTC: -0.12.
In the case of AGACCTCC, the “PBM E-score” value was -0.105.
In the case of ACGTACGC, the “PBM E-score” value is -0.204.
As to CAAGCATC, the “PBM E-score” value stood at 0.0248.
With GTAAGTTA, the “PBM E-score” value is -0.0905.
On to ATCTGGTA, for which the “PBM E-score” value is -0.00683.
For the sequence GCACGCGC, the “PBM E-score” value amounted to 0.0771.
The same measure for ACGAGATC: -0.0876; for AGGCTTCG: -0.0693.
The same measure for ACGCTCCG: -0.0609; for GATCTTAA: -0.0349; for ATGTATAG: 0.252.
The same measure for CACCGGCA: 0.0639.
As to CTGCGTCA, the “PBM E-score” value was -0.14.
The same measure for AGTTCGTC: 0.0641; for ATTGCCTA: -0.17.
The same measure for CGCGTCCC: -0.0659; for ACTGGGCT: -0.00153.
The same measure for AGTAATTG: 0.101.
